In PMC4336329 (PLoS ONE, 2015):
Screen size: about 310,000 compounds; about 14,000 (4.5%) showed an effect of 50% or more. The effect is printed as a negative number. The list shows a part of the results.

target: human ether-à-go-go-related gene (hERG) potassium channel (human, UniProt Q12809); assay: primary screen, population patch clamp on CHO cells stably expressing hERG
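Note: peak tail current of the secondary pulse compared with the same well before compound.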

Chain of human ether-à-go-go-related gene (hERG) potassium channel (Q12809 whole entry, looked up): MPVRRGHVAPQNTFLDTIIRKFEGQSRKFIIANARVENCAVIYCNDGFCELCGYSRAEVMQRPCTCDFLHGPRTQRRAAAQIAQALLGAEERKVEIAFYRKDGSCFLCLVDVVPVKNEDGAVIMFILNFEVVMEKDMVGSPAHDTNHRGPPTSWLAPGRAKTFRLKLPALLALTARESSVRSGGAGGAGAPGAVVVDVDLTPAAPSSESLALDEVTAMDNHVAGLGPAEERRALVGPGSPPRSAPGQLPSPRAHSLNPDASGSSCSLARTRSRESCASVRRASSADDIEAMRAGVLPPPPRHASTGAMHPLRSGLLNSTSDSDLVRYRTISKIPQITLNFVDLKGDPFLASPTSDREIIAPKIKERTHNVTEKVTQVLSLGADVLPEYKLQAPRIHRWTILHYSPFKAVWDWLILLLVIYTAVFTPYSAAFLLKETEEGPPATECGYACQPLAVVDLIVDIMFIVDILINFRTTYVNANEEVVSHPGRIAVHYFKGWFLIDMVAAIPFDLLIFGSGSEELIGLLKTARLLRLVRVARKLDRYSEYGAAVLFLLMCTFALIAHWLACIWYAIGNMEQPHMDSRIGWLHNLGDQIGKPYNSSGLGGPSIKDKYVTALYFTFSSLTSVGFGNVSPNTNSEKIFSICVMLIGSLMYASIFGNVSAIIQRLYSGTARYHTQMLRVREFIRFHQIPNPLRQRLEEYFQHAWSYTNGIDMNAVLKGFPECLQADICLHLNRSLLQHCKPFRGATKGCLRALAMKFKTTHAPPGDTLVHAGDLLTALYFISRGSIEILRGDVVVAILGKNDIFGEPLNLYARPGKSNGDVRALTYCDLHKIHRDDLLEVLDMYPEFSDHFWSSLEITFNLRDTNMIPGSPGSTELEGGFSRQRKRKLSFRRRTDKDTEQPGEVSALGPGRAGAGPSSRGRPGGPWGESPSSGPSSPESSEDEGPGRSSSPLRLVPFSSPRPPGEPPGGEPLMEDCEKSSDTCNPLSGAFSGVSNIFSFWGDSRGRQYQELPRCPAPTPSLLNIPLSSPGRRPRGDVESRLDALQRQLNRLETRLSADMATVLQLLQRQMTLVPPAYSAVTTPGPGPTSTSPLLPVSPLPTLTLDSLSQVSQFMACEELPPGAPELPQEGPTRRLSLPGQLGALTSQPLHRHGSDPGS

Structure (SMILES) | hERG current change (%, negative = inhibition) at 10uM [%]
O=C(CCc1ccccc1)Nc1ncn[nH]1 | -10.1
CCOc1ccc(C2Nc3ccccc3C(CC)(CC)O2)cc1 (centres unmarked) | 6.78
Cc1oc2cc([N+](=O)[O-])c(O)c([N+](=O)[O-])c2c1C(=O)c1ccc(Cl)cc1 | 17.9
Cc1cccc(C)c1NC(=S)NC(C)CCc1ccccc1 (centres unmarked) | 6.75
Cc1ccc2c(CC(=O)Nc3cccc(S(=O)(=O)N4CCOCC4)c3)coc2c1 | -51.4
Cc1ccc(C(=O)N[C@H](C(=O)NC2CCCCCCC2)C(C)C)cc1 | 9.46
Cc1ccc(NC(=S)N/N=C/c2cccn2Cc2ccccc2F)cc1 | -1.42
Cc1cccnc1NC1=NCC(C)S1 (centres unmarked) | 3.1
CC(=O)Nc1ccc(C23CC4CC(CC(C4)C2)C3)cc1 | 18.1
O=C(NCc1ccccc1)C1CCCC1 | 22.7
Cc1cnc(NC(=O)c2ccc(-c3nc4ccccc4s3)o2)s1 | -6.9
Cc1cccc(C(=O)NCCCN2CCCC2=O)c1 | 13.9
CC(C)CCC(C)N=Cc1c(O)n(Cc2ccccc2)c(=O)c2ccccc12 (centres unmarked) | 18.3
Cc1ccccc1CNC(=O)CCCC(=O)n1nc(C)c2ccccc21 | -5.83
CCOC(=O)NC(=O)/C(C#N)=C\NNc1ncc(C(F)(F)F)cc1Cl | -8.73
CCN1CCN(c2ncnc3c2cnn3-c2ccccc2)CC1 | -14.1
CCN(Cc1ccccc1)c1ccc(/C=N/NS(=O)(=O)c2ccc(C)c([N+](=O)[O-])c2)cc1 | 7.77
CCN(C(=O)COC(=O)/C=C/c1ccc(S(=O)(=O)N2CCc3ccccc32)cc1)C1CCS(=O)(=O)C1 (centres unmarked) | -19.4
CO/N=C(\C(=O)O)c1csc(NN=C(C)C)n1 | 16.2
O=C(N/N=C/c1cn(Cc2cccc(F)c2)c2ccccc12)c1cc(O)cc(O)c1 | -0.861
COc1ccc(CN2C(=O)NC(=O)/C(=C/c3ccc(OC)c(OC)c3OC)C2=O)cc1 | 6.05
COc1ncnc2sc3c(c12)CCCC3 | -16.3
CC(=O)Nc1ccc(NC(=O)c2nccnc2C(=O)O)cn1 | 14.3

Structure (SMILES) | hERG current change (%, negative = inhibition) at 10uM [%]
CC(C)C(=O)Nc1c2c(nn1-c1ccc(F)cc1)CSC2 | 8.67
Cc1ccccc1Nc1cc(C(=O)NCC2CCCO2)c2ccccc2n1 (centres unmarked) | -15.6
Cc1ccc2cccnc2c1N | 4.5
O=C(NC(Nc1ccc(F)cc1)(C(F)(F)F)C(F)(F)F)c1cccnc1 | 10.3
CC1CN/C(=C\C(=O)c2ccccc2)C(=O)N1 (centres unmarked) | 11.9
COCCNC(=O)C1CC(=O)N(C2CCCC2)C1 (centres unmarked) | 10.2
CCOc1cc(C(=S)N2CCOCC2)ccc1OS(=O)(=O)c1ccc(OC)cc1 | -1.39
Cc1ccccc1OCCCN1CCCC1 | -14.4
COc1ccc(N(Cc2cc3cc(OC)ccc3[nH]c2=O)S(=O)(=O)c2ccc(NC(C)=O)cc2)cc1 | 5.64
COc1ccc(C(=O)NCCc2c[nH]c3ccccc23)cc1 | 10.8
CN1[C@@H]2CCC[C@H]1CC(NC(=O)c1nn(C)c3ccccc13)C2.Cl (some centres unmarked) | -7.55
COC(=O)c1cn(NC(=O)c2cc(OC)cc(OC)c2)c(=O)c2ccccc12 | 15.4
COc1ccc(C(=O)Oc2cccc(/C=N/NC(N)=S)c2)cc1 | 11.7
COc1ccc2cc3c(N)nn(C(=O)c4ccc(Cl)c([N+](=O)[O-])c4)c3nc2c1 | 2.95
CCC(Oc1ccccc1OC)C(=O)N1CC(=O)Nc2ccccc21 (centres unmarked) | 2.79
O=C(O)c1ccccc1SC1CC(=O)N(C2CCCCC2)C1=O (centres unmarked) | -0.781
CCOC(=O)CSc1ccc(C(=O)Nc2ccc(Cl)cc2)cn1 | 21.8
Cc1ccccc1-n1c(SCc2c(C)noc2C)nnc1-c1ccncc1 | -8.85
COc1cc(/C=N/n2nnnc2N)ccc1OCC#N | 16.1
O=C(CSc1nnc(CNC(=O)c2cccs2)o1)Nc1ccc(Cl)cc1 | -4.26
CCOCC(=O)Nc1ccccc1C(=O)O | 24
Cc1ccc(C2CC(=O)NC(SCc3ccccc3)=C2C#N)cc1 (centres unmarked) | -8.3
O=C(Nc1cccc(Cl)c1N1CCCCC1)c1ccc2c(c1)OCCO2 | 14.2

Structure (SMILES) | hERG current change (%, negative = inhibition) at 10uM [%]
O=C(COc1ccc2c(-c3ccccc3)cc(=O)oc2c1)Nc1ccc(CCO)cc1 | 9.04
CC(=O)C(Sc1nn(C)c(=S)s1)C(=O)Nc1ccccc1 (centres unmarked) | 3.73
COc1ccc(-c2onc3ccc(C(C)=O)cc23)cc1 | -8.83
CC(=O)c1cnc2nc(C(F)(F)F)nn2c1C | 2.3
COc1ccc(C(C)C)cc1S(=O)(=O)N1CCC(C(=O)NCC2CCCO2)CC1 (centres unmarked) | 1.83
COCC(=O)Nc1ccc2c(c1)OCC(=O)N2Cc1ccc(C)cc1 | -10.2
CC(=O)Nc1cccc(CCc2nc3ccccc3[nH]2)c1 | -0.457
CCC(C)C(NC(=O)/C(=C\c1ccccc1)NC(=O)c1ccc(OC)cc1)C(=O)O (centres unmarked) | 20
O=c1c2ccc([N+](=O)[O-])cc2ncn1CCOc1cccc(Br)c1 | 13.1
Cc1ccccc1-n1c(SCC(=O)c2c(N)n(C)c(=O)n(C)c2=O)nnc1-c1cccnc1 | -15.5
O=C(Nc1ccon1)c1cccc(S(=O)(=O)N2CCCC2)c1 | -0.984
Cc1cc(N2CC(=O)N(CCc3ccccc3)C(=O)C2)n2ncnc2n1 | -15.3
CN(Cc1cnn(C)c1)Cc1nc(C(c2ccccc2)c2ccccc2)no1 | -1.79
O=C(CCS(=O)(=O)c1ccc(Br)cc1)NC1CCCC1 | 11.6
Cc1ccc(-c2nn3c(C)nnc3s2)cc1NC(=O)COc1ccc(Cl)cc1 | -70.6
Cc1nnc(SCCC(=O)Nc2ccccc2Cl)o1 | 0.409
COCCNC(=O)[C@@H]1CCCN1S(=O)(=O)c1cccc2cccnc12 | -1.9
O=C(NCCC(=O)N1CCN(c2ccccc2F)CC1)c1ccco1 | 8.93
COc1ccc(OC)c(-n2c(=S)[nH]c3cc(C(=O)N4CCN(c5ccccc5)CC4)ccc3c2=O)c1 | 10.8
CC(C)(C)Nc1c(-c2ccc(O)cc2)nc2ccc(Cl)cn12 | 4.73
COC(=O)C1(CC2CC(c3ccncc3)=NO2)CCN(C(=O)OC(C)(C)C)CC1 (centres unmarked) | -20.7
COc1ccc(N(C(=O)c2ccco2)C(C(=O)NC2CCCC2)c2ccc(OC)c(OC)c2)cc1 (centres unmarked) | -3.3
COc1cc(NC(=S)N2CCCC(CO)C2)cc(OC)c1 (centres unmarked) | 40.4

Structure (SMILES) | hERG current change (%, negative = inhibition) at 10uM [%]
CC(=O)Oc1ccc(OC(C)=O)c2c1CC(C)=C(C)C2 | 13.2
N#CC1(C#N)C(C(N)=O)C1c1ccccc1 (centres unmarked) | 23.7
COc1ccc(CC(=O)OCC(=O)NC(=O)NC2CCCC2)cc1 | 1.78
O=C(NCCS(=O)(=O)N1CCN(c2ccccc2F)CC1)c1ccc(Br)o1 | -6.39
COCC1CCCCN1C(=O)c1ccc(OC2CCN(CCc3ccccc3)CC2)cc1 (centres unmarked) | -37.1
Cc1ccccc1NC(=O)CSc1nnc(CNC(=O)c2ccco2)n1C | -3.35
O=C1Nc2ccc(S(=O)(=O)N3CCCC3)c3ccc(S(=O)(=O)N4CCCC4)c1c23 | -9.54
COC(=O)c1ccc(Nc2nc(-c3ccncc3)nc3ccccc23)cc1 | 28.7
CCN(CC(=O)Nc1ccccc1C(F)(F)F)C(=O)C1=COCCO1 | 22.6
O=C(Cn1cnc2ccccc21)OCC(=O)N1CCCc2ccccc21 | 8.8
Cl.O=C(Nc1cc(F)cc(F)c1)c1ccc(NCCCN2CCCCCC2)c([N+](=O)[O-])c1 | -72.1
CCN1CCN(S(=O)(=O)c2ccc(Cl)c(C(=O)N(CC)CC(=O)Nc3ccc(OC)cc3)c2)CC1 | 2.15
Cc1ccc(C(OCC(O)CNC(C)c2ccccc2)c2ccccc2)cc1 (centres unmarked) | -58.2
CCCCNC(=O)c1cn(CC)c2ccc(S(=O)(=O)N3CCCC3)cc2c1=O | -38.1
C#Cc1ccc([C@@H]2C=C(C(=O)NC3CC3)O[C@H](OCCCCO)C2)cc1 | -2.78
c1ccc(Nc2c(-c3ccco3)nc3ccccn23)cc1 | 9.75
Cc1cc(NC(=O)CCC(=O)N(CC(=O)NC2CCCC2)Cc2ccccc2Cl)no1 | -2.01
COc1cc(CCC(=O)OCn2nnc3ccccc3c2=O)cc(OC)c1OC | 13.3
O=C1c2cccc3cccc(c23)C(=O)N1c1ccc(O)cc1 | 6.51
CC(C)CN(C(=O)COC(=O)COc1ccc2c(c1)CCC2)c1c(N)n(Cc2ccccc2)c(=O)[nH]c1=O | -0.239
